# Patent US20240101686A1 (SIMCERE ZAIMING PHARMACEUTICAL, published 2024)
# T1: pepvIII polypeptide (human)
# T1 construct: synthetic peptide (GL Biochem); also called Leu25-His37 polypeptide
# T1 peptide: LEEKKGNYVVTDH
# How the values were obtained:
# [1] = target: T2, human EGFRvIII-His tag protein (human, UniProt P00533 in part)
# T2 construct: Made in HEK293E, purified on nickel column; also called human EGFRvIII protein; not shown: His tag
# human EGFR protein [2] = target: T3, human EGFR protein (human, UniProt P00533 in part)
# T3 construct: also called human EGFR-His; human EGFR-ECD protein; not shown: His tag
# Her2 protein [3] = target: T4, Her2 protein (human, UniProt P04626 in part)
# T4 construct: Bought protein; also called human Her2 protein
# Her2 protein [4] = target: T4, Her2 protein; remark: listed apart in the source
# Her2 protein [5] = target: T4, Her2 protein; remark: listed apart in the source
# Her2 protein [6] = target: T4, Her2 protein; remark: listed apart in the source
# Her2 protein [7] = target: T4, Her2 protein; remark: listed apart in the source
# Her2 protein [8] = target: T4, Her2 protein; remark: listed apart in the source
# murine EGFR protein = target: T5, murine EGFR protein (murine, UniProt Q01279 25-647)
# T5 construct: Bought protein
# human EGFR protein [9] = target: T3, human EGFR protein; remark: listed apart in the source
# monkey EGFR protein [10] = target: T6, monkey EGFR protein (cynomolgus monkey, UniProt P55245 in part (rhesus entry))
# T6 construct: Bought protein (SB 90285-C08H); also called cynomolgus monkey EGFR
# Her2 protein [11] = target: T4, Her2 protein; remark: listed apart in the source
# Her2 protein [12] = target: T4, Her2 protein; remark: listed apart in the source
# human EGFR on cells [13] = target: T7, human EGFR on cells (human, UniProt P00533)
# [14] = target: T8, human EGFR-His-tagged fusion protein (human, UniProt P00533 in part)
# T8 construct: extracellular domain; bought; also called human EGFR protein; human EGFR-His protein
# [15] = target: T8, human EGFR-His-tagged fusion protein; remark: listed apart in the source
# [16] = target: T8, human EGFR-His-tagged fusion protein; remark: listed apart in the source
# human EGFR on cells [17] = target: T7, human EGFR on cells; remark: listed apart in the source
# pepvIII polypeptide = target: T1, pepvIII polypeptide; experiment: ELISA on coated pepvIII
# [18] = target: T8, human EGFR-His-tagged fusion protein; remark: listed apart in the source
# [19] = target: T8, human EGFR-His-tagged fusion protein; remark: listed apart in the source
# [20] = target: T8, human EGFR-His-tagged fusion protein; remark: listed apart in the source
# [21] = target: T8, human EGFR-His-tagged fusion protein; remark: listed apart in the source
# [22] = target: T8, human EGFR-His-tagged fusion protein; remark: listed apart in the source
# monkey EGFR protein [23] = target: T6, monkey EGFR protein; remark: listed apart in the source
# monkey EGFR on cells = target: T9, monkey EGFR on cells (cynomolgus monkey, UniProt P55245 (rhesus entry)); experiment: FACS on HEK293T-monkey EGFR cells
# T9 construct: also called HEK293T-monkey EGFR
Kd [1] [nM],koff [1] [s⁻¹],kon [1] [M⁻¹ s⁻¹],EC80 (human EGFR protein [2]) [µg/mL],OD450 (Her2 protein [3]),OD450 (Her2 protein [4]),OD450 (Her2 protein [5]),OD450 (Her2 protein [6]),OD450 (Her2 protein [7]),OD450 (Her2 protein [8]),Kd (human EGFR protein [9]) [nM],koff (human EGFR protein [9]) [s⁻¹],kon (human EGFR protein [9]) [M⁻¹ s⁻¹],Kd (monkey EGFR protein [10]) [nM],koff (monkey EGFR protein [10]) [s⁻¹],kon (monkey EGFR protein [10]) [M⁻¹ s⁻¹],OD450 (Her2 protein [11]),OD450 (Her2 protein [12]),Max MFI (human EGFR on cells [13]),Binder,binding result (murine EGFR protein),further results
,,,,,,,,,,,,,,,,,,16100,"S008-NB148-77 (Fc fusion, VHH-Fc (VHH, human IgG1 hinge, human IgG1 Fc)) EVQVVESGGGLVQAGGSLRLSCVASGFDFSDSVMGWYRQAPGKQREAVAIISSVGQSNYRDSVQGRFTVSRSNTENTMYLQMDSLKPEDTAIYYCKKFGPGEYWGQGTQVTVSS[human IgG1 Fc with changes not shown]",,EC50 (human EGFR on cells [13]): 3.96 nM; OD450 [14]: 0.13; OD450 [15]: 2.07; OD450 [16]: 1.9; EC50 (human EGFR on cells [17]): 1.16 nM; Max MFI (human EGFR on cells [17]): 19900; binding result (pepvIII polypeptide): no binding (tested: 100 nM); OD450 [18]: 1.78; OD450 [19]: 0.67; OD450 [20]: 2.18; OD450 [21]: 0.35; OD450 [22]: 0.06
,,,15.2,0.17,0.07,0.13,0.11,0.1,0.12,521,0.0052,9980,,,,0.11,0.07,,"S008-NB148-2 (Fc fusion, Tested as VHH-Fc; order VHH-hinge-Fc inferred) EVQVVESGGGLVQAGGSLRLSCAASGSTFSSYAMTWYRQAPGKQRELVAAISSGGSTNYAASVKGRFTISRDNAKNTLYLQMNTLKPEDTAVYYCNTDWGNGFSAEYDYWGQGTQVTVSS[human IgG1 Fc with changes not shown]",,binding result (monkey EGFR protein [23]): no binding (tested: 200 nM (highest antigen concentration))
,,,,,,,,,,,,,,,,,,12700,"S008-NB148-2 (Fc fusion, VHH-Fc (VHH, human IgG1 hinge, human IgG1 Fc)) EVQVVESGGGLVQAGGSLRLSCAASGSTFSSYAMTWYRQAPGKQRELVAAISSGGSTNYAASVKGRFTISRDNAKNTLYLQMNTLKPEDTAVYYCNTDWGNGFSAEYDYWGQGTQVTVSS[human IgG1 Fc with changes not shown]",,OD450 [14]: 0.06; OD450 [15]: 2.16; OD450 [16]: 2.61; binding result (monkey EGFR on cells): no binding; EC50 (human EGFR on cells [17]): 28.1 nM; Max MFI (human EGFR on cells [17]): 9890; OD450 [18]: 1.05; OD450 [19]: 0.19; OD450 [20]: 2.8; OD450 [21]: 0.05; OD450 [22]: 0.05

# Second part, the binder before the results:
Binder,Kd [1] [nM],koff [1] [s⁻¹],kon [1] [M⁻¹ s⁻¹],EC80 (human EGFR protein [2]) [µg/mL],OD450 (Her2 protein [3]),OD450 (Her2 protein [4]),OD450 (Her2 protein [5]),OD450 (Her2 protein [6]),OD450 (Her2 protein [7]),OD450 (Her2 protein [8]),Kd (human EGFR protein [9]) [nM],koff (human EGFR protein [9]) [s⁻¹],kon (human EGFR protein [9]) [M⁻¹ s⁻¹],Kd (monkey EGFR protein [10]) [nM],koff (monkey EGFR protein [10]) [s⁻¹],kon (monkey EGFR protein [10]) [M⁻¹ s⁻¹],OD450 (Her2 protein [11]),OD450 (Her2 protein [12]),Max MFI (human EGFR on cells [13]),binding result (murine EGFR protein),further results
"S008-NB149-15 (Fc fusion, Tested as VHH-Fc; order VHH-hinge-Fc inferred) QLQLVESGGGLVRPGGSLRLSCAASGSIFSRSGATWYRQAPGKQRELVALLTRDGHTDYPVVSVKGRFTISKDNAKNTVYLQMNSLQPEDTAVYYCNAIPPLGSWGRGTQVTVSS[human IgG1 Fc with changes not shown]",39.1,0.0167,427000,2.4,0.17,0.16,0.18,0.13,0.13,0.15,45.9,0.00695,151000,8.3,0.000679,81800,0.16,0.2,,no binding (tested: 200 nM (highest antigen concentration)),
"S008-NB149-12 (Fc fusion, Tested as VHH-Fc; order VHH-hinge-Fc inferred) QVQLVESGGGLVQPGGSLRLSCVVSESISVINAMTWYRQAPGKQRELVALISRGGSTNYADSVKGRFTISRDNAKNSVYLQMNSLKPEDTALYYCNVVPPLGSWGQGTQVTVSS[human IgG1 Fc with changes not shown]",7.89,0.000475,60200,2.2,0.14,0.15,0.17,0.15,0.11,0.1,39,0.0017,43700,8.3,0.000461,55600,0.13,0.09,,no binding (tested: 200 nM (highest antigen concentration)),
"S008-NB149-22 (Fc fusion, Tested as VHH-Fc; order VHH-hinge-Fc inferred) QVQLVESGGGLVQAGGSLRLSCVASGRFPSIYRMAWFRQAPGKERDFVAAINWGGTATYYEDSVKGRFTISRDNTKNTVWLQMNSLKPEDTAVYYCAAGTGTTYTPQRGDAYGYWGQGTQVTVSS[human IgG1 Fc with changes not shown]",30.7,0.00142,46400,4.6,0.12,0.11,0.17,0.12,0.08,0.16,120,0.00102,8490,9.55,0.000685,71700,0.08,0.11,,no binding (tested: 200 nM (highest antigen concentration)),

# Like-named read-outs stand apart in the source and are kept apart here.
